Data taken from the RNAGym collection of RNA variant scans (doi:10.7554/elife.90254).
The source gives no read counts; variants with many changes may rest on few reads.

B1: LINE1-mini (parent)
chain: GGCAGAGCUCAACACAGCGUGGCAAAGUGGCUGUGGCUAGACUGCC

Variants of: B1
Experiment: self-cleavage, relative activity (ratio to wild type); higher = more cleavage; in vitro, sequencing; the parent is a self-cleaving ribozyme

Variant	self-cleavage
GGCAGUGCUCAACACUGCGUGGCAAACUGGCCGUGGCUACACUGCC [A6U A16U G27C U32C G40C]	0.02
GGCAGUGCUCAACACAGCGUGGCGAACUGGCUGUGGCUAGACUGCC [A6U A24G G27C]	0.18
GGCAGUGCUCAACACAGCGUGGCGAAGUGGCUGUUGCUAAACUGAC [A6U A24G G35U G40A C45A]	0.09
GGCAGUGCUCAACACAGCGUGGCUAAGUGGCUUGGGCUAGACUGUC [A6U A24U G33U U34G C45U]	0.02
GGCAGUGCUCAACACAGCGUGGCUAAGUGGCUGUAGCUAGACUCCC [A6U A24U G35A G44C]	0.05
GGCAGUGCUCAACACAGCGUGGCAGAGUGGCUGUGGCUCGACUGCC [A6U A25G A39C]	0.51
GGCAGUGCUCAACACAGCGUGGCAGAGUGGAUGUGGCUAGACUGCC [A6U A25G C31A]	0.2
GGCAGUGCUCAACACAGCGUGGCAACGUGGCUGUGGCUGGACUGCC [A6U A26C A39G]	0.04
GGCAGUGCUCAACACAGCGUGGCAAAGUGGCUGUGGCUCGAUAGCC [A6U A39C C42U U43A]	0.01
GGCAGUGCUCAACACAGCGUGGCAAAGUGGCUGUGGCUAGGCAGCA [A6U A41G U43A C46A]	0.64
GGCAGUGAUCAACACAGCGUGGCCAAGUGGUUGUGGCUAGACUGCC [A6U C8A A24C C31U]	0.32
GGCAGUGAUUGACACAGCGUGGCAAAGUGGCUGUGGCUAGACUGCC [A6U C8A C10U A11G]	0.04
GGCAGUGAUCAACACAGCGUGGCAAAGUGUCUGUGGCUAGACUGCC [A6U C8A G30U]	0.48
GGCAGUGAUCAACACAGCGUGGCAAAGAGGGUGUGGCUAGACUGCC [A6U C8A U28A C31G]	0.05
GGCAGUGGUGAACACAGCUUGGCGAAGUAGCUGUGGCUAGACUGAC [A6U C8G C10G G19U A24G G29A C45A]	0.01
GGCAGUGGUCAACACAGCGUGGCAAAGUAGAUGUGGCUAGACUGCC [A6U C8G G29A C31A]	0.04
GGCAGUGGUCAACACAGCGUGGCAAAGUUGCUGCGGCUAGACUGCA [A6U C8G G29U U34C C46A]	0.04
GGCAGUGGUCAACACAGCGUGGCAAAGUGCCUGUGGCCAGACUGCC [A6U C8G G30C U38C]	0.03
GGCAGUGGACAACACAGCCUGGCUAAGUGGCUGUGGCUAGACUGCC [A6U C8G U9A G19C A24U]	0

Variant	self-cleavage
GGCAGUGUUCUACACAGCGGGGCAAAGUGGCUGUGGCUAGACUGCC [A6U C8U A11U U20G]	0.02
GGCAGUGUUCAACACAGUGUGGCAAAGUGGCUGUGACUAGAGUGCC [A6U C8U C18U G36A C42G]	0.44
GGCAGUGUUCAACACAGCGUGGCAAAGUGGCUGUGGCUAGACUGUC [A6U C8U C45U]	0.18
GGCAGUGUUCAACACAUCGUGGCAAAGUGGCUGUGGCUAGACUGCC [A6U C8U G17U]	0.12
GGCAGUGCUAAACACAGCGUGGCAAAGUGGCUGUGGCUAGUAUGCC [A6U C10A A41U C42A]	0.05
GGCAGUGCUAAAAACAGCGUGGCAAAGUGGCUGUGGCUAGCCUGCC [A6U C10A C13A A41C]	0.02
GGCAGUGCUAAAGCCAGCGUGGCAAAGCGGCUGUGGCUAGACUGCC [A6U C10A C13G A14C U28C]	0.05
GGCAGUGCUAAACACAGGGUGGCAAAGUGGCUGUGGCUAGACUGCA [A6U C10A C18G C46A]	0.03
GGCAGUGCUAAACACAGCGUGGGAAUGUGGCCGUGGGUAGACUGCC [A6U C10A C23G A26U U32C C37G]	0.02
GGCAGUGCUAAACACAGCGUAGCAAAGUGGCUGUGGCUAGACUUCC [A6U C10A G21A G44U]	0.02
GGCAGUGCUAAACACAGCGUGUCAAAGUGGCGGUGGCUAGACUACC [A6U C10A G22U U32G G44A]	0
GGCAGUGCUAAACACAGCGUGGCAAAGUAGCUGUGGUUAGACUGCC [A6U C10A G29A C37U]	0.01
GGCAGUGCUAAACACAGCGAGGCAAAGUCGCUGUAGAUAGACUGCC [A6U C10A U20A G29C G35A C37A]	0.01
GGCAGUGCUAAACACAGCGUGGCAAAGAGGCUGUGGCUCGACUGCC [A6U C10A U28A A39C]	0.01
GGCAGUGCUGAAGAGAGCGUGGCAAAGUGGCUGUGGCUAGACCGCC [A6U C10G C13G C15G U43C]	0
GGCAGUGCUGAAUACAGCGUGGCAAAGUGGCUGUGGCUAGACUGCC [A6U C10G C13U]	0.01
GGCAGUGCUGAAUACAGCGUGGCAAUGUGGCUGUGGCGAGACUGCC [A6U C10G C13U A26U U38G]	0.01
GGCAGUGCUGAACACAGAGUGGCAAAGUGGCUGUGGCUAGACUGCC [A6U C10G C18A]	0.02
GGCAGUGCUGAACACAGCGUGCCAAAGUGGCUGUGGCUAGACUGCG [A6U C10G G22C C46G]	0.01

Variant	self-cleavage
GGCAGUGCUGAACACAGCGUGGCAAAGUGGCUGGGGGUACCCUACC [A6U C10G U34G C37G G40C A41C G44A]	0.01
GGCAGUGCUUAAUACAGCGUGGCAAACUGGCUGUGGCUAGACUGCC [A6U C10U C13U G27C]	0.05
GGCAGUGCUUAACACAGCGUGGCAAAGUGGCUGUGGCUAGACUCCC [A6U C10U G44C]	0.21
GGCAGUGCUCAAAGCAGCGUUGCAAACUGGCUGUGGCUAGACUGCC [A6U C13A A14G G21U G27C]	0.49
GGCAGUGCUCAAAAGAGCGUGGCAAAGUGGCUGUGGCUAGACUGCC [A6U C13A C15G]	0.35
GGCAGUGCUCAAAACAGUGUGGCAAAGUGGCUGUGGCUAGAACGCC [A6U C13A C18U C42A U43C]	0.08
GGCAGUGCUCAAAACAGCGUGGUAAAGUGGCUGUGGCUAGACUGCA [A6U C13A C23U C46A]	0.21
GGCAGUGCUCAAAACAGCGUGGCAAAGUGGCUGUGGCUAGACUACC [A6U C13A G44A]	0.1
GGCAGUGCUCAAAACAGCGUGGCAAAGGGGCUGUGGUUAGACUGCC [A6U C13A U28G C37U]	0.2
GGCAGUGCUCAAGACAGCGUGGGAAAGUGACUGUGGCUAGACUGCC [A6U C13G C23G G30A]	0.18
GGCAGUGCUCAAGACAGCGUGGCAAAAUGGCUGUGGCUAGACUGCC [A6U C13G G27A]	0.08
GGCAGUGCUCAAUUCAACGUCGCAAAGUGGGUGUGGCUAGACUGCC [A6U C13U A14U G17A G21C C31G]	0.02
GGCAGUGCUCAAUACAGCGUGGCAACGUGGCUGUGGAUUGACUGCC [A6U C13U A26C C37A A39U]	0.26
GGCAGUGCUCAAUACAACGUGGCAAAGUGGCUGUGGCUAGACUGCC [A6U C13U G17A]	0.01
GGCAGUGCUCAACAAAGCGUGGCAAAGCGGCUGUGGCUAGACUGCC [A6U C15A U28C]	0.04
GGCAGUGCUCAACAGAGCGUGGCAAAGUGGCUGUGGCUAGAAUGCC [A6U C15G C42A]	0.38
GGCAGUGCUCAACAGAGCGUUGCAAAGUGGCCGUGGCUAGACUGCC [A6U C15G G21U U32C]	0.02
GGCAGUGCUCAACAUAGCGUGGCAGAGUGGCUGUGGCUAGAAUGCC [A6U C15U A25G C42A]	0.11
